Measurements as given in the BET-seq Pho4 binding data (Le et al. 2018).
The list shows a part of the results. The energies were worked out here from pooled read counts, against the library average; single values are noisy.

Target: T1, Pho4 (S. cerevisiae) (UniProt P07270)
T1 sequence: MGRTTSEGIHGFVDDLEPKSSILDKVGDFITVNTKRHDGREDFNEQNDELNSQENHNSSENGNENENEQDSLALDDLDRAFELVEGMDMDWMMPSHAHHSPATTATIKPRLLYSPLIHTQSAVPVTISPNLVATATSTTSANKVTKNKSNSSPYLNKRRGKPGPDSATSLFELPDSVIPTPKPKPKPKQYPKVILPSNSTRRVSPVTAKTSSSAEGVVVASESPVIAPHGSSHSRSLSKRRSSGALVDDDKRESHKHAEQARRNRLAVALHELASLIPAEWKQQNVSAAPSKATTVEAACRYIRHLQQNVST
Assay: relative binding free energy (BET-seq); higher = weaker binding
Settings: reference: library average

Sequence	relative binding free energy [kcal/mol]
CGTGTCACGTGGGTGC	-0.09
TCGTCCACGTGGGTTT	-0.1
GGTTACACGTGCGCGT	-0.01
CGGTACACGTGGTGTC	0.04
TAGCTCACGTGTTTAG	0.27
GTGGTCACGTGGTCTT	0.08
GGAGCCACGTGTGAGT	0.1
GTATCCACGTGGTGGT	0.08
ATATGCACGTGATCTG	0.04
GGTGGCACGTGGCTAT	-0.02
TGTCACACGTGTTAGG	0.17
CATTACACGTGGGGGA	0.08
TATGGCACGTGGGGAC	-0.22
GTCGTCACGTGGGTCG	-0.05
CAAGGCACGTGTGTTG	-0.08
GGGTACACGTGGGGAA	0.13
TTGCGCACGTGATGCG	0
CAGCGCACGTGGTTGG	-0.19
GATGGCACGTGAAGTA	0.21
GGCCACACGTGTGGGA	0.29
AATTCCACGTGTTGGG	0.1
GGATACACGTGGAATG	0.11
GTGAGCACGTGAGTTT	0.29
TAAGTCACGTGCTAGT	0.06
TAGTTCACGTGTGATG	0.44
TGGTACACGTGGTCGG	-0.01

Sequence	relative binding free energy [kcal/mol]
CGGGGCACGTGAGTAA	0.06
AAAGTCACGTGGGTGA	0.12
TGTGACACGTGGAGTC	0.03
GGTTGCACGTGTTTAA	0.14
GGGATCACGTGTGGAG	0.16
CTTGGCACGTGGTTGC	-0.1
AGTATCACGTGTATGT	0.11
TGTTTCACGTGATACT	0.45
CTTTTCACGTGGTGAA	0.19
AGGTCCACGTGACGGT	0.11
ATAATCACGTGTGGTT	0.07
GAGCGCACGTGCGGGA	0
TTGATCACGTGGGTTA	-0.08
ATATTCACGTGTATTA	0.13
GCGGTCACGTGGTACG	0.07
TCCGGCACGTGTGTTG	-0.03
GTTTGCACGTGCAGGC	0.08
GTAGACACGTGTTCGG	0.03
TAGTCCACGTGTAGTG	0.01
TGTATCACGTGTATAT	0.08
ACGGGCACGTGGTGGA	-0.24
TGGTTCACGTGGAGAT	0.28
ATTTCCACGTGAAGGT	0.2
GGCTGCACGTGGGTGA	-0.2
TGGTTCACGTGCAATA	0.24
GTAACCACGTGTGGGA	0.03

Sequence	relative binding free energy [kcal/mol]
AAGTACACGTGAATTG	0.31
TGTTCCACGTGTTTTG	0.05
ATAATCACGTGTCAGG	0.21
TTGGTCACGTGCGTCG	-0.23
GGGGGCACGTGAAATG	0.25
GTATACACGTGGCGGG	0.01
GGTTACACGTGGGGTC	0.01
TTATTCACGTGTGGTA	0.26
CGTGGCACGTGTTGAA	0.05
TAGCGCACGTGCTTGG	-0.15
CTTCACACGTGGTTTT	0.24
TTAGACACGTGTTGCT	0.01
TTTAACACGTGTGGCA	-0.04
ATAAGCACGTGTTTCT	-0.08
TTTCGCACGTGTGTTA	-0.13
AGTGGCACGTGCTTTA	-0.21
GGTTGCACGTGTTAGA	0.13
TGAGTCACGTGTTTGT	0.12
TTTCTCACGTGCTGTA	0.23
ATCGACACGTGGAGGT	-0.01
GTACACACGTGGTGGT	0.05
AAGCTCACGTGTTGGG	0.27
TCGAGCACGTGGTAGG	-0.24
AAGGTCACGTGGTATT	-0.04
GGTAGCACGTGTGTGT	-0.03
TGTTACACGTGACGGG	0.17

Sequence	relative binding free energy [kcal/mol]
TGATGCACGTGTTTTG	0.02
CTAGGCACGTGGTTAT	-0.32
GACTGCACGTGGTTGG	-0.01
TGGGACACGTGTTGTT	0.04
GGGTTCACGTGTTGCA	0.28
TTTTGCACGTGATGAA	0.09
GTGATCACGTGGGAGA	0.02
GTGGACACGTGTAGTC	0.09
CTTTGCACGTGGCGCG	-0.05
ATGCGCACGTGAGTGG	-0.04
AAAATCACGTGGTATG	0
TTTGTCACGTGCTCGT	-0.02
GTTGGCACGTGTGTCC	-0.08
AGGGTCACGTGGCTTA	-0.1
AAGTGCACGTGGATTG	-0.13
GGGATCACGTGGTGTG	0.12
CTGGGCACGTGGAGGA	-0.02
TGTGTCACGTGGGCTG	0
GTTGGCACGTGGGAGC	-0.03
AGCTACACGTGTTGTG	-0.08
CCTGTCACGTGGCGGG	0.11
ATTGTCACGTGGTCAG	0.06
ATTATCACGTGTCTTA	0.1
AGGGACACGTGAGGGG	0.19
CGTGGCACGTGCATTG	-0.19
TAGGTCACGTGGCTAG	-0.07

Sequence	relative binding free energy [kcal/mol]
TGCGGCACGTGATGCG	-0.19
GTTTACACGTGGGTAC	0.08
TGTGACACGTGGGTCC	-0.11
GTTGGCACGTGCTTAG	0
GGGTACACGTGTTATG	0.17
GGTGGCACGTGCGGAC	-0.2
AGTCGCACGTGGACGG	0.04
AGTAACACGTGGTATA	-0.11
GTGAGCACGTGCGGAG	-0.18
AGGGACACGTGGAGTG	0
TCGGGCACGTGCGATG	-0.18
GGCGTCACGTGTTTAG	0.09
TGTGGCACGTGGCGGA	-0.16
TTCTGCACGTGTTTTT	0.05
TTTTGCACGTGGCTAG	-0.1
TCATTCACGTGAGATT	0.39
ATAAGCACGTGGGTTA	-0.18
ATTAGCACGTGGTTGC	-0.16
TGTTTCACGTGACGTG	0.42
TAATTCACGTGAGGGC	0.4
GAGGACACGTGGTGAA	0
TAATGCACGTGTTGAT	-0.1
ACTGGCACGTGATGTT	0.04
CTAATCACGTGTATTT	0.19
AGAGTCACGTGAGAGT	0.38
AGGGGCACGTGTACGG	-0.19

Sequence	relative binding free energy [kcal/mol]
TCGCGCACGTGGTTTG	-0.1
ATGGACACGTGTATGA	0.06
GCGGACACGTGGCGGG	-0.05
TGGCACACGTGGGTTA	-0.23
TGGGTCACGTGGGCTA	0.02
GGGGGCACGTGTTTTC	-0.1
TTTGGCACGTGCGAAT	0.04
CTTTGCACGTGACGGG	0.1
AATGACACGTGGGGAG	-0.04
AGTATCACGTGGGATT	0.06
TGTTACACGTGCGGTA	0.07
GAGGTCACGTGTGATA	0.23
AATGTCACGTGCGGAA	0.02
TTTGCCACGTGGATGA	0.02
AGGTCCACGTGCGGGG	-0.04
ATTTTCACGTGTTTTA	0.31
TGAATCACGTGGAGAG	0.15
GGCGGCACGTGTGTGT	-0.14
TGTGGCACGTGCGGGG	-0.13
GTTGCCACGTGGTGCT	-0.03
AGGGGCACGTGAGGCC	-0.02
AAGTTCACGTGAAGTG	0.25
GGCAGCACGTGTTGGT	0.01
GATTACACGTGGGTAG	0.04
TACTACACGTGGTAAT	0.32
GTCAACACGTGGTGTG	-0.09

Sequence	relative binding free energy [kcal/mol]
AAGGGCACGTGTAGGA	-0.06
ATGCTCACGTGTTAGG	0.05
AGTTGCACGTGTCCGG	0.08
TGGCACACGTGGGTGC	-0.03
TAAAACACGTGGAATG	0.24
GGGAACACGTGTGGCG	0.11
CAAGGCACGTGAATGG	0.1
CTTTGCACGTGTTCGG	0.05
GGGAGCACGTGTATTA	-0.12
TTCGTCACGTGCAGTT	0.21
GGCGTCACGTGCTGTG	0
TAGTTCACGTGAATTG	0.26
ATATTCACGTGTAGAA	0.16
GGGAACACGTGCGGGC	0.03
TTGTACACGTGGTGCA	-0.11
TACGTCACGTGTTCAG	0.15
ATGACCACGTGATGGG	0.16
CATGGCACGTGGGGTT	-0.24
CGTATCACGTGGTCGT	0.09
GAGATCACGTGCGTGG	0.19
GGGGTCACGTGAGAGT	0.43
TTTTTCACGTGTTACA	0.34
TAAATCACGTGGGAGA	0.2
ATTACCACGTGTATGT	0.1
AACTGCACGTGTAGTG	0.1
CTTAGCACGTGAGAGT	0.19

Sequence	relative binding free energy [kcal/mol]
AAGTACACGTGTAGTG	0.04
TAGCACACGTGGTGTA	-0.11
GTGGACACGTGTTATG	0.08
GGAGGCACGTGGCCAG	-0.16
GATCGCACGTGGATTG	0.06
GCTAACACGTGGGGTT	-0.08
TTGCTCACGTGGTTGC	0.09
AGTGCCACGTGGGACG	-0.16
CTAGTCACGTGAATTA	0.54
GTTCGCACGTGTGCTG	-0.04
TGAGTCACGTGGATTT	0.28
TTACGCACGTGCGTGG	-0.23
CGTTGCACGTGTTTAG	0.07
TTTTTCACGTGTCTAA	0.13
AGGTGCACGTGGGAGG	-0.16
GGCGTCACGTGGTACG	0.22
CTGATCACGTGAGTTG	0.22
GGGGACACGTGGTCGG	-0.03
TAGTACACGTGATTAG	0.24
TTGTTCACGTGTGGAT	0.27
GTTAGCACGTGACGGT	0.16
CGGTTCACGTGGTTCT	0.2
GATGGCACGTGTACGG	0.08
GCATTCACGTGGTCGG	0.24
AGATGCACGTGAATTG	0.24
ATGTGCACGTGCTGCG	-0.11

Sequence	relative binding free energy [kcal/mol]
GTATGCACGTGTTATA	-0.08
CGGGCCACGTGGAGGG	-0.09
TCGAGCACGTGGGGGG	-0.27
TGTTCCACGTGTAGAG	0.07
TTTGACACGTGGTTTA	0.03
GCTGTCACGTGAGGGC	0.4
GGGTTCACGTGACAGT	0.4
ACGGGCACGTGGTAGT	-0.08
GGCGGCACGTGGGAGA	-0.11
AGAGGCACGTGGTGGC	-0.11
TAAGGCACGTGATGGA	0.1
TGTTGCACGTGAGGGT	0.21
GTGATCACGTGGGAAT	0.16
GCTGTCACGTGGAAGG	0.16
GCGTACACGTGAGCGG	0.38
GTAGTCACGTGGTCAT	-0.01
GGCTGCACGTGTAAAT	0.26
ATGTCCACGTGGGGGA	-0.19
AGTTACACGTGGTATC	0.03
AGTGCCACGTGGGGTG	-0.22
ATGTTCACGTGTGTTA	0.15
TTGGACACGTGTGGTC	0.25
